Measured values from ChEMBL document CHEMBL4888484, “Replenishing the malaria drug discovery pipeline: Screening and hit evaluation of the MMV Hit Generation Library 1 (HGL1) against asexual blood stage Plasmodium falciparum ,using a nano luciferase reporter read-out” (2022).
The whole screen tested about 150,000 compounds, of which about 540 (0.36%) showed an effect of 50% or more. The list shows a part of the results.

Tested on: Plasmodium falciparum
Test: Primary screen in NF54 nanoGlo assay, in single point, at 2uM, 72h; a lower Z score goes with more inhibition
Assay type: functional, Erythrocyte
Conditions: timepoint 72 hour

SMILES | % Inhibition [%] | Z score
Nc1ccc2nc(CCc3nc4ccc(N)cc4s3)sc2c1 | -10 | 1.37
CO[C@H]1C[C@H]2CN(C(=O)c3n[nH]c4ccccc34)CC(=O)N2C1 | -1 | 0.11
O=C(O)c1cccc(Cn2cnc3c2CCCC3)c1 | -8 | 0.76
CCCC1(CCC)NC(=O)N(CC(=O)Nc2nc(-c3cccc4ccccc34)cs2)C1=O | -7 | 0.94
O=C1CC[C@]2(CCCN(c3ccncc3F)C2)CN1C1CCCC1 | 0 | 0.02
COc1ccc(-n2ncc3c2CC(C)(C)C[C@@H]3NC(=O)C2CCN(C(C)=O)CC2)cc1 | -18 | 1.56
COc1ccc(-c2noc(CCN(C(=O)C3CCC3)[C@@H](C)c3ccccc3)n2)cc1OC | -11 | 1.49
Cc1nn(-c2cc(N(S(C)(=O)=O)S(C)(=O)=O)c(Cl)cc2Cl)c(=O)n1C | -3 | 0.4
CC(C)C(=O)N1CCN(C(=O)c2ccc3ccccc3c2)[C@H]2CS(=O)(=O)C[C@H]21 | -4 | 0.72
O=C1C2CC=CCC2C(=O)N1CC1CCCO1 (stereo not drawn) | -16 | 2.08
Cc1c(-c2nnc(C(=O)N3CCCCCC3)o2)oc2c(C)cccc12 | 17 | -2
c1nc(NCC(C2CCOC2)N2CCCC2)c2ccsc2n1 (stereo not drawn) | -1 | 0.1
CCc1cccc(NC(=O)CN2CC[C@H](n3cc(C)cn3)C2)c1 | 5 | -0.59
Cn1cc(CN2C[C@@H]3C[C@H](C2)c2ccc(NC(=O)c4ccc(C#N)cc4)c(=O)n2C3)c2ccccc21 | 13 | -1.56
O=C(c1ccc2c(n1)CCCC2)N(Cc1ccco1)C[C@H]1CCCO1 | -1 | 0.2
CC(C)(C)c1ncc(C=Cc2cnc(C(=O)O)cn2)s1 | -1 | 0.09
O=C(Oc1ccc(Cl)cc1)c1cnsn1 | -2 | 0.27
CC1CCCC(C)C1NC(=O)Nc1nncc(-c2ccccc2)n1 (stereo not drawn) | 4 | -0.65
Cc1cc(N2CCCC2)ccc1-c1nc2cnccn2c1NCc1ccco1 | -7 | 1.32
Cc1cccc2nc(CN3C[C@H](F)C[C@H]3C(N)=O)cn12 | -13 | 1.82
C[C@H](NC(=O)c1ccc2c(c1)OCCO2)c1nnc(N)s1 | 9 | -0.96
COC(=O)C1(CNCc2cscn2)CCCCC1 | -15 | 1.71
Cc1ccc(CC(=O)N2CC(O)(c3ccc(F)cc3)C2)cn1 | -10 | 1.15
Cc1nc(N2CCC3(CC2)COC(=O)O3)c2ccsc2n1 | -7 | 1.39
CC(C)Oc1cc(-c2ccnn2C(C)C)nc(N)n1 | -5 | 0.61
CCCc1cc(N2CCN(C(=O)c3ccc4cc[nH]c4c3)CC2)nc2nnc(CC)n12 | -1 | 0.09
CC1(C)C[C@H](c2ccccc2)CN1C(=O)c1coc(CO)c1 | 7 | -0.85

SMILES | % Inhibition [%] | Z score
N#Cc1cnc(-c2ccc3c(c2)OCO3)nc1N | 5 | -0.88
Cc1nc2ncccc2cc1C(=O)N1CCC2(CCNC(=O)CC2)CC1 | -8 | 1.09
CCc1nccc(-c2nccn2CCOc2ccccc2F)n1 | -5 | 0.87
O=C(Cc1c(F)cccc1Cl)Nc1nc(-c2ccccc2)cs1 | -3 | 0.48
CC[C@H](NS(=O)(=O)N1CCCC1)c1cc(C)ccn1 | -2 | 0.35
Cc1noc(-c2nn(C)c3c2CN(C(=O)Nc2ccccc2C(F)(F)F)CC3)n1 | 4 | -0.6
Cc1ccc(-c2ccc(C(=O)NCCN3CCC[C@H](C(N)=O)C3)cc2)cc1F | 1 | -0.21
CCN(Cc1nccn1Cc1cccc(OC)c1)S(=O)(=O)c1ccc(OC)cc1 | -4 | 0.84
O=C(NC[C@H]1Cc2ccccc2O1)c1ccc(-c2ccco2)[nH]c1=O | -8 | 1.31
Cc1nnc(CN2C[C@@H]3CCC[C@@]3(C(=O)OC(C)(C)C)C2)s1 | -10 | 1.44
COc1ccccc1N(C)CCCN1C(=O)NC(C)(C)C1=O | -2 | 0.31
O=C(NCC[C@@H]1C[C@@H]2C=C[C@H]1C2)c1cc2n(n1)CCNC2 | -7 | 1.03
Cc1cc2c(NC(=O)CCc3cc4n(n3)CCNC4)cccc2nn1 | -2 | 0.29
Clc1ccc(CN2CCc3nc(N4CCOCC4)ncc3C2)cc1 | -8 | 1.52
Cn1ncc2c(N)nc(N3CCC(C)(C)C3)nc21 | -9 | 1.22
Cc1nn(C)c(C)c1[C@H]1OCC[C@@H]1NC(=O)C1CC1c1cccc2ccccc12 (stereo partly drawn) | -12 | 1.43
Cc1nnc(C(=O)N[C@H]2CCC(=O)NC2(C)C)s1 | -2 | 0.47
Cc1nn(C)c(C)c1CNc1cnn(CC(F)(F)F)c1 | 0 | -0.03
CC(C)(C)OC(=O)N[C@@H]1CCC[C@H]1CC(=O)Nc1ccc(N2CCC(O)CC2)c(C#N)c1 | 1 | -0.15
c1coc(-c2nc(C3CCOCC3)nn2-c2cnc3ccccc3n2)c1 | 8 | -1.03
Cc1ccc(NC(=O)Cn2ccn3nc4c(c3c2=O)CCCCC4)c(C)c1 | -4 | 0.57
CCOc1ccccc1CNC(=O)c1cnc(-c2cccnc2)nc1 | -27 | 3.83
Cn1nc(-c2c(-c3ccccc3)ncn2[C@H]2CCNC2)c2c(Cl)cccc21 | -14 | 2.59
Cc1ccc(C)c([C@@H]2CCCN2C(=O)c2cnnn2C)c1 | -5 | 1
Cn1cc(S(=O)(=O)N2CCCCCC2)cc1C(=O)Nc1cccc(F)c1 | -14 | 2.01
CC(C)(C)NC(=O)CC1(NC(=O)OC(C)(C)C)CCC1 | -10 | 2.01
COc1cc(C)cc(OC)c1-c1cc2nc[nH]c2nc1C | -11 | 1.3
